Article PMC4336329 (PLoS ONE, 2015)
About 2,200 (0.71%) of roughly 310,000 compounds showed an effect of 50% or more. Effects have a minus sign here. The list shows a part of the results.

target: human ether-à-go-go-related gene (hERG) potassium channel (human, UniProt Q12809); assay: primary screen, population patch clamp on CHO cells stably expressing hERG
Sequence (Q12809 whole entry, looked up): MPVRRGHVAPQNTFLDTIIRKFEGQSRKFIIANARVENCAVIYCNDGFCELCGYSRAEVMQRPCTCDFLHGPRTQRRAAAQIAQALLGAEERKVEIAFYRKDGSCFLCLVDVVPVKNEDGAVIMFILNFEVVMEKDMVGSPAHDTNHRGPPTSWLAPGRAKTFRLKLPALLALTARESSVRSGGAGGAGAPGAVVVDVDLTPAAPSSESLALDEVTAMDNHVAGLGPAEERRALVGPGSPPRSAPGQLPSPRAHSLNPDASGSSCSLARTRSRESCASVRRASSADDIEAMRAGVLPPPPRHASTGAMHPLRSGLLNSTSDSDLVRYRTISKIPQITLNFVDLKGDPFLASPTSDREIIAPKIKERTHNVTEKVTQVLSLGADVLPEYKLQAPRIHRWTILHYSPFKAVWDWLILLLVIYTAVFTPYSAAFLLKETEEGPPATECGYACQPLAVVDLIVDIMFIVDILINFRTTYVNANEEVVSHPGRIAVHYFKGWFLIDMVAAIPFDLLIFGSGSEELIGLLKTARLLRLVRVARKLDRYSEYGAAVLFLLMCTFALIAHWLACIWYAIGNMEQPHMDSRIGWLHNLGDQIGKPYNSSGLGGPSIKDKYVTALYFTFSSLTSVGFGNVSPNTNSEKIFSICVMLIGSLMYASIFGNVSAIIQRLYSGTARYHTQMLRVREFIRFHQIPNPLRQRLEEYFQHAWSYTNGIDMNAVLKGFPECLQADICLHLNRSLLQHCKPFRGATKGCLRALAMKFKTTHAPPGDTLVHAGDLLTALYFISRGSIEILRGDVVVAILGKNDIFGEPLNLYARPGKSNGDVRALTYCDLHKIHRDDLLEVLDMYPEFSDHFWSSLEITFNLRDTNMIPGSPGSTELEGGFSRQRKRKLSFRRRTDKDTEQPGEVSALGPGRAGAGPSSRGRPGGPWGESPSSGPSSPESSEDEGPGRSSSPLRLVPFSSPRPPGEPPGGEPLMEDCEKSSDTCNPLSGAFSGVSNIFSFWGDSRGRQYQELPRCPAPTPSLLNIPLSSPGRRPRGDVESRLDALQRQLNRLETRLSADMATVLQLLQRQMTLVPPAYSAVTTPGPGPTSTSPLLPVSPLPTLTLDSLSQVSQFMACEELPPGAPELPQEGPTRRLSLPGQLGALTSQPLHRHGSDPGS

| SMILES | hERG current change (%, negative = inhibition) at 1uM [%] |
| --- | --- |
| Cn1c(=O)oc2cc(S(=O)(=O)CCC(=O)N3CCN(c4ccccc4F)CC3)ccc21 | 9.76 |
| O=C(CSc1nnc(-c2ccccc2)n1Cc1ccco1)NCc1ccc2c(c1)OCO2 | -22.2 |
| COc1nc(NCc2ccco2)nc(N2CCC(C)CC2)n1 | 8.49 |
| Cl.O=C(OCCN1CCOCC1)C1(c2ccccc2)CCCCC1 | -3.09 |
| COc1nc(OCCNS(=O)(=O)c2ccc(C)cc2)nc(N(C)C)n1 | 7.75 |
| Nc1nnc(SCCN2C(=O)c3ccccc3C2=O)s1 | -1.3 |
| CCCCCCCc1c(O)nc(SCCN(C)C)[nH]c1=O.Cl | 0.416 |
| COc1ccccc1NC(=O)NCC(c1ccco1)N1CCCCC1 (stereo not drawn) | 15.1 |
| CCn1cc(C(=O)NCc2ccc(C)o2)c2cc(OC)c(OC)cc2c1=O | 14.4 |
| COC(=O)Nc1sc2c(c1C(=O)NCc1ccco1)CCCC2 | -5.05 |
| CCS(=O)(=O)c1ncc(Cl)c(C(=O)Nc2ccc(S(=O)(=O)N3CCC(C)CC3)cc2)n1 | 22.6 |
| COc1ccc(-c2nc(CS(=O)CC(=O)NC3CCCCC3C)c(C)o2)cc1OC (stereo not drawn) | 11.1 |
| Cc1oc(CC(C)C)cc1C(=O)Nc1ccc(C(=O)O)cc1 | 6.11 |
| COCCn1c(=S)[nH]c2cc(C(=O)N(CCO)Cc3ccccc3)ccc2c1=O | 18.5 |
| CC(/C=C1\SC(=O)N(CC(=O)Nc2ccc(O)cc2)C1=O)=C\c1ccccc1 | -3.15 |
| COc1ccc(Cl)cc1S(=O)(=O)N1CCCC(C(=O)NCCc2ccccc2)C1 (stereo not drawn) | 10.3 |
| CCCCC1=CC2=C(c3ccco3)C(=O)C(C)(OC(=O)c3ccc(OC)cc3)C(=O)C2=CN1CC1CC1 (stereo not drawn) | 16.9 |
| CCCCC(CC)C(=O)NCc1ccccc1OC (stereo not drawn) | -3.83 |
| CCc1nnc(NC(=O)c2cc([N+](=O)[O-])ccc2N2CCOCC2)s1 | 0.37 |
| COc1cc(NC(=O)[C@@H]2CCCN(S(=O)(=O)c3cccc4cccnc34)C2)cc(OC)c1OC | 12.4 |
| Cc1cc(C)n(C(=O)c2cccc([N+](=O)[O-])c2)n1 | 7.79 |
| O=C(CC(Nc1ccccc1Cl)C(=O)OCC(=O)c1cccs1)c1ccccc1 (stereo not drawn) | 8.49 |

| SMILES | hERG current change (%, negative = inhibition) at 1uM [%] |
| --- | --- |
| CCOC(=O)c1c(NC(=O)c2c(C(=O)O)cccc2[N+](=O)[O-])sc2c1CCCC2 | 9.23 |
| COc1ccc(CN2CCCCC2C(=O)Nc2ccc(OC)c(OC)c2)cc1OC (stereo not drawn) | 1.96 |
| O=S(Cc1ccccc1)CC(O)(c1ccc(Cl)cc1)c1ccc(Cl)cc1 (stereo not drawn) | 8.36 |
| COC(=O)c1ccccc1S(=O)(=O)N1CCC(C(=O)NCCC2=CCCCC2)CC1 | 3.67 |
| COc1cc(OC)cc(C(=O)NC2CCN(Cc3nnnn3Cc3cccs3)CC2)c1 | 2 |
| C=CCn1c(N)cc(=O)nc1SCC(=O)Nc1ccc2ccccc2c1 | 11.5 |
| CCOC(=O)Cn1c(=N)n(CCOc2ccc(OC)cc2)c2ccccc21.Cl | -4.6 |
| Fc1cccc(-c2cc3nc4c(c(N5CCC6(CC5)OCCO6)n3n2)CCCC4)c1 | 4.63 |
| O=c1c2c(nc3nc[nH]n13)CCC2 | -0.632 |
| Cc1cc(=O)[nH]c(Cc2ccc(OC(C)C)cc2)n1 | 10.6 |
| COc1ccc(OC)c(C(=O)c2c(C)oc3cc([N+](=O)[O-])c(O)c([N+](=O)[O-])c23)c1 | 15.3 |
| N#CC1(c2ccc(NC(=O)c3ccccc3)cc2)CCCC1 | 7.32 |
| COc1cccc2cc(C(=O)NC(C)C3CCCO3)c(=O)oc12 (stereo not drawn) | -1.93 |
| CC(C)C1CC(CCNCc2ccc(N(C)C)cc2)(c2ccccc2)CCO1 (stereo not drawn) | -3.61 |
| CC(C)(C)c1nc2ccc([N+](=O)[O-])cc2[nH]1 | -46.9 |
| NS(=O)(=O)c1ccc(CCNC(=O)C(=O)c2cn(CC(=O)N3CCCC3)c3ccccc23)cc1 | 10.6 |
| Cc1ccc(C)c(NC(=S)NCc2ccccc2)c1 | 15.8 |
| CCOC(=O)N1CCN(C(=O)CSc2ccc3nnc(CCNC(=O)c4ccccc4)n3n2)CC1 | 14 |
| O=C(CC1SC(=Nc2ccccc2F)N(CCN2CCOCC2)C1=O)Nc1ccc(F)cc1F (stereo not drawn) | 1.58 |
| COc1ccc(S(=O)(=O)N2CCCN(CCC(=O)Nc3cccc(C(F)(F)F)c3)CC2)cc1 | -12.7 |
| O=C1CCCc2oc3ccc(NS(=O)(=O)c4cccc5cccnc45)cc3c21 | 8.92 |
| CC(C)NC(=O)c1cnc(N2CCN(c3ccccn3)CC2)c2ccccc12 | 7.48 |

| SMILES | hERG current change (%, negative = inhibition) at 1uM [%] |
| --- | --- |
| CCc1ccc(C(=O)C23CN4CN(CN(C4)C2)C3)cc1 | 5.68 |
| Cc1ccc(S(=O)(=O)N2CCN(C(=O)COC(=O)C3CC3C)CC2)c(C)c1 (stereo not drawn) | -3.18 |
| O=c1c2ccccc2nnn1CSc1ccccc1F | 5.04 |
| CC(C)(C)NCC(O)c1cc(Cl)c(N)c(Cl)c1.Cl (stereo not drawn) | 4.02 |
| O=C(COC(=O)c1cccc(Cl)c1)Nc1ccc2[nH]c(=O)[nH]c2c1 | 1.63 |
| O=C(NCCN1CCOCC1)c1cc2ccccc2oc1=O | 5.73 |
| COc1ccc(-c2cccc(NS(=O)(=O)c3cccc([N+](=O)[O-])c3)c2)nn1 | 9.11 |
| CC(=O)c1c(N2CCCC2)[nH]c(-c2ccccc2)nc1=S | -3.96 |
| CCC(CC)C(=O)NCCNC(=O)C(CC)CC | 14.4 |
| CN(C)C=Nc1ccccc1C1C=NNC1=O (stereo not drawn) | 10.6 |
| CC(NC(=O)Cc1cccs1)C(c1cccs1)N1CCOCC1 (stereo not drawn) | 6.61 |
| CC(=O)c1ccc(S(=O)(=O)NCc2nnnn2-c2ccccc2)cc1 | 10.9 |
| Cc1ccc(N2C(=O)[C@@H]3C(c4cccnc4)=NO[C@@H]3C2=O)c(C)c1 | 17.2 |
| NCCCC[C@H]1CNC(=O)C(=O)N1CC1CCCCC1 | 19.3 |
| COc1ccc(C(=O)Nc2cccc(C(=O)N/N=C/c3ccc(OC)cc3OC)c2)cc1 | 9.51 |
| C[C@]12CC[C@H]3[C@@H](CCC4=CC(=O)CC[C@@]43O)[C@@H]1CCC2=O | 0.0717 |
| CCOc1ccc(NC(=O)Cn2cc(C(C)=O)c3ccccc32)cc1 | 2.97 |
| COc1ccc(C(=O)c2oc3ccc(Br)cc3c2NC(C)=O)cc1 | 4.56 |
| CCc1ccc(NS(=O)(=O)c2cc3[nH]c(=O)c(=O)[nH]c3cc2C)cc1 | 17.4 |
| O=C(COc1ccc(Br)cc1)NCCNC(=O)c1ccccn1 | -0.378 |
| O=C(COC(=O)c1cccnc1Nc1ccccc1F)NCCN1C(=O)CSC1=O | 0.954 |
| O=C(NCc1nnc(SCC(=O)N2CCC(Cc3ccccc3)CC2)o1)c1ccco1 | -6.48 |

| SMILES | hERG current change (%, negative = inhibition) at 1uM [%] |
| --- | --- |
| CC1(C)CC(NC(=O)COc2ccc([N+](=O)[O-])cc2)CC(C)(C)N1 | 3.47 |
| CN1C(=O)CN=C(c2ccc(Cl)cc2)c2cc(Cl)ccc21 | -0.804 |
| NC(=O)c1ccc(NC(=O)CN2C(=O)NC(c3ccccc3)(c3ccccc3)C2=O)cc1 | 16.6 |
| CCCC(=O)C1=C(O)C(C(=O)OC)C(C)(C)CC1=Nc1ccc(Br)cc1 (stereo not drawn) | 13.2 |
| CC1CCN(c2ncnc3c2cnn3Cc2ccc(Cl)cc2)CC1 | 4.18 |
| COC(=O)C1=C(c2ccccc2)C[C@@H]2CC[C@H]1N2C | 21.1 |
| O=C(COC(=O)Cc1ccccc1F)Nc1ccc(SC(F)F)cc1 | -1.11 |
| Cc1cccc(OCc2ccc(C(=O)Nc3cc(C)on3)o2)c1 | 13.8 |
| CC1C(=O)CCN(C(C)C)C1C.Cl (stereo not drawn) | 10.8 |
| COCCN(C(=S)Nc1ccccc1C)C(C)c1cccnc1 (stereo not drawn) | 1.86 |
| CCOc1ccc(CN2CCCC(CO)(Cc3ccc(F)cc3)C2)cc1 (stereo not drawn) | -13.1 |
| CCCCCCc1cc2cc(C(=O)Nc3cccc(OC)c3)c(=O)oc2cc1O | 13.9 |
| O=C(Nc1ccccc1-c1ccccc1)c1ccccc1Br | 11.5 |
| Nc1nc2c(c(=O)[nH]1)CN(Cc1ccccc1)CC2 | 5.8 |
| CC(=O)n1cc([C@@H]2C=C(C(=O)N3CCN(Cc4ccc5c(c4)OCO5)CC3)O[C@H](OCCCCO)C2)c2ccccc21 | -6.63 |
| NC(=O)c1nsc(C(=O)N(CC(=O)NCc2ccc3c(c2)OCO3)C2CCCCC2)c1N | 6.06 |
| COc1ccccc1C(CNc1ncccc1[N+](=O)[O-])N(C)C (stereo not drawn) | 7.34 |
| CCN1CCN(CC(=O)c2cc(OC)c(OC)c(OC)c2)CC1 | 10.8 |
| Cc1cccc(-c2nc3c(c(SCC(=O)N(C)C)n2)CCCC3)c1 | 5.58 |
| CC(C)c1ccc(NC(=O)c2ccc(NC3=NC4CS(=O)(=O)CC4S3)cc2)cc1 (stereo not drawn) | -0.0656 |
| Cc1ccc(NC(=S)NNc2ccc(C(=O)O)cc2[N+](=O)[O-])cc1C | 13.5 |
